# About 7,500 (2.1%) of roughly 360,000 compounds were called active. The inconclusive results got no clear call from the source; some entries with a clear call stand among them for comparison. Calls follow the shape of the dose curve; as a rule, active = well fitted cell-killing curve with a large enough effect; inconclusive = small, poorly fitted or top-dose-only effect, or effect the other way, or another doubt; inactive = no such curve, though single readings can be large or run the other way. Potencies of inconclusive entries are left out as doubtful fits.
# Experiment: qHTS for induction of synthetic lethality in tumor cells producing 2HG: qHTS for the HT-1080-IDH1KD cell line;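 as to activity, negative = toxicity: 0% = DMSO wells and -100% = cell-free medium wells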
# Settings: HT-1080 IDH1 knockdown viability, ATP luminescence, 48 h; activity, negative = toxicity: at 46.1 µM (top of the series) unless noted
# Outline: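 Cytotoxicity counter-line: IDH1KD HT-1080, 48 h, CellTiter-Glo. Curves classed by r2, magnitude and activity.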
# Potency is read from the fitted curve at half-maximal effect; tags tell the direction and shape of the fitted curve.
Structure (SMILES),Potency,"activity, negative = toxicity"
Cc1cc(C)n(CC(=O)N/N=C/c2cc([N+](=O)[O-])ccc2O)n1,"inconclusive [cytotoxic, partial curve]",
C[C@H](NC(=O)c1nc[nH]c1C(=O)N[C@@H](Cc1ccccc1)C(=O)OC(C)(C)C)C(=O)OC(C)(C)C,"inconclusive [cytotoxic, single point]",
O=C(c1ccncc1)N1N=C(c2ccc(Br)cc2)CC1c1ccccc1O (stereo unspecified),"inconclusive [cytotoxic, single point]",
CCCOCC(O)CC(Cc1ccccc1)C(=O)NN (stereo unspecified),inactive,
CCC(=NCCc1c(C)[nH]c2ccc(C)cc12)C1=C(O)CC(c2ccccc2)CC1=O (stereo unspecified),active: 1.3 µM,
O=C(Nc1cccc(F)c1)N1CCc2nc(NCc3cccc(Oc4ccccc4)c3)ncc2C1,"inconclusive [cytotoxic, single point]",
COc1ccc(OC)c(Nc2ncnc3c2cnn3-c2cccc(C)c2)c1,active: 7.08 µM,
O=C(NNc1cc(N2CCOCC2)nc(N2CCOCC2)n1)C12CC3CC(CC(C3)C1)C2,inactive,
Cc1ccc2c(CC(=O)NNC(=O)c3ccccc3O)coc2c1,"inconclusive [cytotoxic, partial curve]",
CC(=O)NC(c1ccc(F)c(F)c1)c1nc(-c2ccccc2)cs1 (stereo unspecified),inactive,
CCOc1ccc2[nH]c3c(N4CCN(C(=O)c5ccco5)CC4)ncnc3c2c1,"inconclusive [cytotoxic, partial curve]",
COc1ccc(C2CC(c3ccncc3)=NN2c2ccc(S(N)(=O)=O)cc2)cc1 (stereo unspecified),"inconclusive [cytotoxic, partial curve]",
CSc1nc(NCC(C)C)c2c3c(sc2n1)CN(C)CC3,"inconclusive [cytotoxic, single point]",
Nc1ccc(C(=O)OCc2nc3cc4ccccc4cc3[nH]2)cc1,,inconclusive: -25.2% [cytotoxic]
N#CC1=C(N)Oc2n[nH]c(-c3cccs3)c2C1C1C=CCCC1 (stereo unspecified),inactive,
O=C(CSC1=NCCS1)Nc1nc2ccccc2s1,"inconclusive [cytotoxic, single point]",
Cc1cc(C(=O)COC(=O)c2ccccc2O)c(C)n1CC1CCCO1 (stereo unspecified),"inconclusive [cytotoxic, single point]",
CCc1ccc(OCCCC(=O)NCc2ccccc2)cc1,"inconclusive [cytotoxic, single point]",
O=C(COC(=O)c1ccccc1O)Nc1ccc(N2CCOCC2)cc1,inactive,
COc1cc(OC)c(OC)cc1CN(C)CC1CCCN(CCc2ccccc2F)C1 (stereo unspecified),"inconclusive [cytotoxic, partial curve, poor fit]",
Cc1ccccc1Oc1ccc(Oc2ccccc2C)nn1,,inconclusive: 6.15%
O=C(N/N=C/C(Br)=C\c1ccccc1)c1ccc2nc[nH]c2c1,"inconclusive [cytotoxic, single point]",

Structure (SMILES),Potency,"activity, negative = toxicity"
CN1OC[C@@H]2CN(Cc3ccccc3)[C@H](c3cccc(-c4ccc(C#N)cc4)c3)C[C@@H]21,"inconclusive [cytotoxic, single point]",
CCC(C)C(NC(=O)C1CCC(C)CC1)C(=O)Nc1cc(OC)ccc1OC (stereo unspecified),"inconclusive [cytotoxic, partial curve, poor fit]",
COc1ccc(CCNC(=O)C(=O)NCC2OCCN2S(=O)(=O)c2cc(F)ccc2F)cc1 (stereo unspecified),inactive,
CCc1nc2ccc(C(=O)N3CCN(C(=O)c4ccco4)CC3)cn2c1N(C)C(=O)COc1ccccc1,"inconclusive [cytotoxic, single point]",
CCOC(=O)c1cnc(SCc2nc(N)nc(Nc3ccc(C)cc3)n2)nc1N,"inconclusive [cytotoxic, partial curve]",
Cc1cccc(Sc2nc(-c3ccccc3)ccc2C#N)c1,inactive,
NC(=O)C(c1ccc(Br)cc1)c1ccc(C(=O)c2ccccc2)cc1 (stereo unspecified),"inconclusive [cytotoxic, single point]",
CCC(CC)C(C(=O)NCc1ccccc1)N(C)Cc1ccc(Cl)c(Cl)c1 (stereo unspecified),"inconclusive [cytotoxic, single point]",
NS(=O)(=O)c1ccc(CCNC(=O)CSc2nc3ccccc3c(=O)n2CCC(=O)N2CCCCC2)cc1,inactive,
CCCn1c(=O)c(C(=O)NNC(=O)c2ccccc2Cl)c(O)c2ccccc21,"inconclusive [cytotoxic, single point]",
Cc1cccc(OCCSc2nc3c([nH]2)c(=N)ncn3Cc2ccccc2)c1,"inconclusive [cytotoxic, single point]",
COc1cc(C2CC(=O)Nc3n[nH]c(-c4ccccc4)c32)cc(OC)c1OC (stereo unspecified),"inconclusive [cytotoxic, single point]",
CCC(C(=O)Nc1ccon1)c1ccccc1 (stereo unspecified),inactive,
COc1ccc(/C=C2/SC(=S)N(CCCC(=O)Nc3cccc(O)c3)C2=O)cc1,"inconclusive [cytotoxic, single point]",
COc1ccc(-c2ccc(CNCCCN3CCOCC3)o2)cc1Cl,"inconclusive [cytotoxic, single point]",
Cc1ccccc1Nc1nc(N)c2ccccc2n1,active: 16.4 µM,
Cc1cccc(C)c1NC(=O)C(c1ccc(C(F)(F)F)cc1)n1c(=O)c(-c2cc3ccccc3[nH]2)nc2ccccc21 (stereo unspecified),active: 20.6 µM,
Oc1ccc(/C=N/Nc2cc(N3CCOCC3)nc(N3CCOCC3)n2)cc1,"inconclusive [cytotoxic, single point]",
O=C(CSc1nnnn1-c1ccccc1)CC(=O)Nc1ccc(Cl)cc1,"inconclusive [cytotoxic, single point]",
C(=N\Nc1nc(Nc2ccccc2)nc(N2CCOCC2)n1)/c1c[nH]c2ccccc12,"inconclusive [cytotoxic, partial curve, poor fit]",
O=C(c1cccc(Cl)c1)N1CCC(=O)N([C@H](COCc2cccc(Cl)c2)Cc2ccccc2)CC1,active: 16.4 µM,
CCN(CC(=O)Nc1cc(Cl)ccc1C)C(=O)C1CCN(c2ncnc3sc(C)c(C)c23)CC1,"inconclusive [cytotoxic, single point]",

Structure (SMILES),Potency,"activity, negative = toxicity"
CN(c1ccc(C(=O)N2CCCCC2)cc1)S(C)(=O)=O,inactive,
O=C1CC2(CCCCC2)Oc2ccc(OCC(=O)N3CCOCC3)cc21,"inconclusive [cytotoxic, single point]",
COc1cccc(C(=O)N2CCN(C(=O)COc3ccc4ccccc4c3)CC2)c1,inactive,
O=C(N=Nc1c(O)[nH]c2ccccc12)c1ccccc1NS(=O)(=O)c1cccs1,"inconclusive [cytotoxic, single point]",
COc1ccc(S(=O)(=O)N2CCC(O)(c3ccc(Cl)cc3)CC2)cc1,"inconclusive [cytotoxic, single point]",
CCC(C)(C)c1ccc(OCCCC[n+]2cccc(C)c2)c(C(C)(C)CC)c1,active: 4.11 µM,
Cc1ccccc1C1c2[nH]c3ccccc3c2CCN1C(=O)c1ccc(=O)n(C)n1 (stereo unspecified),"inconclusive [cytotoxic, partial curve]",
C=C(C)COc1ccc(-c2ncnc(C(F)(F)F)c2-c2ccccc2)c(O)c1,"inconclusive [cytotoxic, single point]",
COc1cccc(N2CCN(c3cnc4ccccc4n3)CC2)c1,"inconclusive [cytotoxic, single point]",
CN(C)C(=O)CCc1ccc2c3c([nH]c2c1)[C@]1(CCC2CCCC2)[C@@H](C(=O)N2CCOCC2)C[C@H](CC(=O)NCCC2=CCCCC2)C(=O)N1CC3,"inconclusive [cytotoxic, single point]",
CC1=C(C(=O)OC(C)(C)C)C(c2ccco2)C(C#N)=C(N)O1 (stereo unspecified),"inconclusive [cytotoxic, single point]",
CCOc1ccc(-n2nnnc2SCC(=O)Nc2ccc(NC(C)=O)cc2)cc1,"inconclusive [cytotoxic, single point]",
CCCCCC(=O)Nc1nc(C)c(-c2csc(Nc3ccc(Cl)cc3)n2)s1,"inconclusive [cytotoxic, single point]",
COC(=O)c1c(C)[nH]c(O)c1C=Nc1ccc(Oc2ccccc2)cc1,"inconclusive [cytotoxic, single point]",
O=C(/C=C/c1ccc([N+](=O)[O-])s1)N1CCCCC1,active: 23.1 µM,
COc1ccc(-c2cc(=O)oc3c(C)c(OC(C)C(=O)Nc4ccc(CN5CCOCC5)cc4)ccc23)cc1 (stereo unspecified),"inconclusive [cytotoxic, partial curve]",
CN(C(=O)COC(=O)c1ccc2c(c1)OCO2)c1c(N)n(Cc2ccccc2)c(=O)[nH]c1=O,inactive,
CCOc1ccc(C(c2c(NC(=O)c3ccccc3)sc(C)c2C)N2CCN(C)CC2)cc1 (stereo unspecified),"inconclusive [cytotoxic, partial curve]",
Cc1ccc(S(=O)(=O)N2C(=O)[C@@H]3Cc4ccccc4CN3C2=O)cc1,"inconclusive [rising, partial curve]",
O=S(Cc1ccc(Br)cc1)Cc1nnc(SCc2ccc(Cl)cc2)n1-c1ccccc1 (stereo unspecified),inactive,
CCOC(=O)c1c(C)nc2ccccn12,,inconclusive: 33.4%
CCOc1cc(-c2cc(-c3ccc(C)o3)nc(N)c2C#N)ccc1O,"inconclusive [cytotoxic, single point]",

# — PubChem BioAssay AID686971 (National Center for Advancing Translational Sciences (NCATS), 2013)
